Results from PMC5865211, “The orphan GPR50 receptor promotes constitutive TGFβ receptor signaling and protects against cancer development” (Nature Communications, 2018).

Biological target: T1, TβRI-Renilla luciferase 8 (Rluc8) fusion protein (UniProt P36897 34-503)
T1 construct: TGFβ receptor type I; In the homomer BRET row the second copy of TβRI carried YFP (TβRI-YFP) instead of Rluc8; also called TβRI-Rluc8; source: HEK293T, transfected, in intact cells
T1 sequence (looked up): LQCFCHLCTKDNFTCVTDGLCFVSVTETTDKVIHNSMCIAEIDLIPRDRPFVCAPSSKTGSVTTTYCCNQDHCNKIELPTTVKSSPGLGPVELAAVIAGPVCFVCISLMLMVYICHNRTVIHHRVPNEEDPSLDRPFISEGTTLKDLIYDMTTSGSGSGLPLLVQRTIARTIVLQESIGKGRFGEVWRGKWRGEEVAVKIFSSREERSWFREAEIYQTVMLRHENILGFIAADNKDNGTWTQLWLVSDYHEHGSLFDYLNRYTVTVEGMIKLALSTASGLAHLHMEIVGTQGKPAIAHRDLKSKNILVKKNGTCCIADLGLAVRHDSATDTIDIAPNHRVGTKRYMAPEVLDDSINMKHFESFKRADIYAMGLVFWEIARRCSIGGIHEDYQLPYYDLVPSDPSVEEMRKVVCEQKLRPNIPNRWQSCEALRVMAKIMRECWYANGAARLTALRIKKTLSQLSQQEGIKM
Experiment: FRET or BRET; BRET donor saturation in intact HEK293T cells; fixed amount of TβRI-Rluc8, increasing amounts of YFP fusion; no TGFβ
Conditions: partners not purified

- BRET50: 0.025 ± 0.006
B1: GPR50wt-YFP (receptor, human, UniProt Q13585 1-617, looked up)
chain: MGPTLAVPTPYGCIGCKLPQPEYPPALIIFMFCAMVITIVVDLIGNSMVILAVTKNKKLRNSGNIFVVSLSVADMLVAIYPYPLMLHAMSIGGWDLSQLQCQMVGFITGLSVVGSIFNIVAIAINRYCYICHSLQYERIFSVRNTCIYLVITWIMTVLAVLPNMYIGTIEYDPRTYTCIFNYLNNPVFTVTIVCIHFVLPLLIVGFCYVRIWTKVLAARDPAGQNPDNQLAEVRNFLTMFVIFLLFAVCWCPINVLTVLVAVSPKEMAGKIPNWLYLAAYFIAYFNSCLNAVIYGLLNENFRREYWTIFHAMRHPIIFFSGLISDIREMQEARTLARARAHARDQAREQDRAHACPAVEETPMNVRNVPLPGDAAAGHPDRASGHPKPHSRSSSAYRKSASTHHKSVFSHSKAASGHLKPVSGHSKPASGHPKSATVYPKPASVHFKADSVHFKGDSVHFKPDSVHFKPASSNPKPITGHHVSAGSHSKSAFSAATSHPKPTTGHIKPATSHAEPTTADYPKPATTSHPKPTAADNPELSASHCPEIPAIAHPVSDDSDLPESASSPAAGPTKPAASQLESDTIADLPDPTVVTTSTNDYHDVVVIDVEDDPDEMAV
notes: GPR50, human, wild type form with 502TTGH505; also called GPR50wt-yellow fluorescent protein fusion; GPR50-YFP; source: HEK293T, transfected, in intact cells
